Source: article PMC10320511
Results are given in words; binding and its absence hold for the method and conditions named. Binding seen in cells or lysates may run through a third protein. Some binding calls cover weakened binding; strength is not graded here. Tags and fused reporters may be left off the sequences shown.

Protein sequences, listed by entry. Tags and fused reporters are not part of them.
UniProt Q01371: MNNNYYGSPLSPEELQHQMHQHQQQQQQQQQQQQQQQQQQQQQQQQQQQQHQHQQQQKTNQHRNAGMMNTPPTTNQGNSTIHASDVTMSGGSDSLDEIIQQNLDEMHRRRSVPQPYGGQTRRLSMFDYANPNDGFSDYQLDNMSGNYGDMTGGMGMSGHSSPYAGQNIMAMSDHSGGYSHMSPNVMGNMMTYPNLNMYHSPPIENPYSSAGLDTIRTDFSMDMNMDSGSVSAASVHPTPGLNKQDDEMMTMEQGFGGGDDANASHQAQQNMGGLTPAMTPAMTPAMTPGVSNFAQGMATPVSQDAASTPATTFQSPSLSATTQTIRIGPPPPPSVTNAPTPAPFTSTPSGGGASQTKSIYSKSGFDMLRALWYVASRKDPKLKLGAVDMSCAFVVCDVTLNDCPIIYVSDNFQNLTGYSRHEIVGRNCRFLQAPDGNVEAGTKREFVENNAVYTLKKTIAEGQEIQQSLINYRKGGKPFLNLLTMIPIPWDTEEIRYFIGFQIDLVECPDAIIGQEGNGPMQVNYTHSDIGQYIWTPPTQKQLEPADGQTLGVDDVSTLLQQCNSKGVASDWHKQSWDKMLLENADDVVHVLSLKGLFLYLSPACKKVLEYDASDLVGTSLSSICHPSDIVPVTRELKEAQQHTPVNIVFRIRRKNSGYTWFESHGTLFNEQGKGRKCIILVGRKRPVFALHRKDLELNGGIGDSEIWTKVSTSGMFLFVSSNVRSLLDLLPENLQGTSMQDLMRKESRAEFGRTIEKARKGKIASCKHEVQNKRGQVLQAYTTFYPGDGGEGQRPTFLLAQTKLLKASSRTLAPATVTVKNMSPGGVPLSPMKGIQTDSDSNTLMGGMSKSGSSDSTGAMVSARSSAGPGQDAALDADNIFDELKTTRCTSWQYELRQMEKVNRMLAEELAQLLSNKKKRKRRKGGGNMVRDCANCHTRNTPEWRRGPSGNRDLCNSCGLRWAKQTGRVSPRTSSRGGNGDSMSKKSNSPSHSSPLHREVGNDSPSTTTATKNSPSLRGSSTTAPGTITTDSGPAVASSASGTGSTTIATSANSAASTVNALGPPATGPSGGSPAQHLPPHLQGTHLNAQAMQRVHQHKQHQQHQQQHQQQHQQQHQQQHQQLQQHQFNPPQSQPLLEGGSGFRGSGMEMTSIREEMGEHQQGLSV

Legend:
[1] = target: T1, FRQ Δ194–199, V5H6-tagged (Neurospora crassa) (UniProt P19970); experiment: co-IP; V5H6-tagged FRQ (wild type or mutant) pulled down with V5 agarose from Neurospora lysate (cultures in the light, 25 °C); 50 mM Hepes pH 7.4, 137 mM NaCl, 10% glycerol, 0.4% NP-40; 4 °C, 2 h; Western blot with FRQ, FRH, WC-1 and WC-2 antibodies
T1 sequence: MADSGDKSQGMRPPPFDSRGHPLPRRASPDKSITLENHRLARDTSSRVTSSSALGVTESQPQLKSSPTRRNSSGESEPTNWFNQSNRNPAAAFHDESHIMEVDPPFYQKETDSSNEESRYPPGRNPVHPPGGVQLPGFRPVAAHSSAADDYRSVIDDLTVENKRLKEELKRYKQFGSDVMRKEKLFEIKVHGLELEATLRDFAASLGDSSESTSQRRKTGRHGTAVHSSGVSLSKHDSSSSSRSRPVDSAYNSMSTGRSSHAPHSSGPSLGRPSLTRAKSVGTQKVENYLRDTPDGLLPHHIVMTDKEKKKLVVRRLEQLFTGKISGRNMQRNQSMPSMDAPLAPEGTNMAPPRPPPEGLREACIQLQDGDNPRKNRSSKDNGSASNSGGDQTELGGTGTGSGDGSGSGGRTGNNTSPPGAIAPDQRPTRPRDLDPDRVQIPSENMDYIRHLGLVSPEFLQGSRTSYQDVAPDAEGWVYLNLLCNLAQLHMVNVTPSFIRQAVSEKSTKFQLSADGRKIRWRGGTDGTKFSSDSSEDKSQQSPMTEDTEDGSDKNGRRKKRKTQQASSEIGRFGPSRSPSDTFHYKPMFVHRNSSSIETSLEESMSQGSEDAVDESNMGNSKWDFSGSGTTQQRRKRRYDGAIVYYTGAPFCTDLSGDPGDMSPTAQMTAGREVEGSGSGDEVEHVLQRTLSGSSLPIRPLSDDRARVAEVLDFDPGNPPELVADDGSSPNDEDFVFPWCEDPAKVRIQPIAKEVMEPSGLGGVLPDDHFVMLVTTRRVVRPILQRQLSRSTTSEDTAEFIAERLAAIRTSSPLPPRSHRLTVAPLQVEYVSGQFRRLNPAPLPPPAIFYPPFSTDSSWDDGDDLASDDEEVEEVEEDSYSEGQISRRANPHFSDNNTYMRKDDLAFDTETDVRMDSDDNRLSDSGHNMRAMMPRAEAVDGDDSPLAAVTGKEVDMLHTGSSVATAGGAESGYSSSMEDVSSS

[2] = target: T2, FRQ Δ435–481, V5H6-tagged (Neurospora crassa) (UniProt P19970); experiment: as above
T2 sequence: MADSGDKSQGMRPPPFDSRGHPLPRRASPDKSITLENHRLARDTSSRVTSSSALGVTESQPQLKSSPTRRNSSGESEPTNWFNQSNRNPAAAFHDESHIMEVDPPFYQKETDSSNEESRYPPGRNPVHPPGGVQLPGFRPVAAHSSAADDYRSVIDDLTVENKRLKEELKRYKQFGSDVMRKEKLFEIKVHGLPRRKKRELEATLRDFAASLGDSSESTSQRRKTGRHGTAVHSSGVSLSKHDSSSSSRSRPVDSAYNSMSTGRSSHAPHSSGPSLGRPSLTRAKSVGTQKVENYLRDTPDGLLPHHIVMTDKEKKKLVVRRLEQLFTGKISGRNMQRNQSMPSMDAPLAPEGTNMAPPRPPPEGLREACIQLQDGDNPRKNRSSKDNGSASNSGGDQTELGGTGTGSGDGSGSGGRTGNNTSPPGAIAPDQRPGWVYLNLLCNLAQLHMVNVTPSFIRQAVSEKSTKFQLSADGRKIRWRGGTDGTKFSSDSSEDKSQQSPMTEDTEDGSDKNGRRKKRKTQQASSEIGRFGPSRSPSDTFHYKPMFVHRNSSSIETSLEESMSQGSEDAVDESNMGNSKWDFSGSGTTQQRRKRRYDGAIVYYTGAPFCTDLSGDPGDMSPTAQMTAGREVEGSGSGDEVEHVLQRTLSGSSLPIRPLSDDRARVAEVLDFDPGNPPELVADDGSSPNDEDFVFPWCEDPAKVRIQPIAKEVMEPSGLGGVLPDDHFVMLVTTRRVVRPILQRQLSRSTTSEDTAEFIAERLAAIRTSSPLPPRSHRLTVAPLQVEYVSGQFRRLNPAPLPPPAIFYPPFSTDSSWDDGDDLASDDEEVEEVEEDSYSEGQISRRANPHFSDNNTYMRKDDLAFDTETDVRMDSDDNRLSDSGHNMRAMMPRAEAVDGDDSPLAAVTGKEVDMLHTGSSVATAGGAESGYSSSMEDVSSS

binding [1]: no binding
binding [2]: binds
Substance: White Collar-1 (WC-1) (from UniProt Q01371 1-1167)
